This is an account of results in the supplement of paper PMC4604168 (melanoma cell lines).

The other results are listed elsewhere or left out. Repeats are few or missing, and single values can be far off.
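Note: cell number obtained by counting DAPI-stained nuclei in high-throughput microscope images with image analysis software, screen run in 1,536-well plates.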

The subject of the test is LOXIMVI. As to the kind of experiment: cell count relative to DMSO control; melanoma cells; higher = more viable cells. The note with it: library dose: low library concentration; 72 h.
With `CC[C@]1(O)C[C@H]2CN(CCc3c([nH]c4ccccc34)[C@@](C(=O)OC)(c3cc4c(cc3OC)N(C=O)[C@H]3[C@@](O)(C(=O)OC)[C@H](OC(C)=O)[C@]5(CC)C=CCN6CC[C@]43[C@@H]65)C2)C1` [vincristine] + C[C@@H]1CCN(C(=O)CC#N)C[C@@H]1N(C)c1ncnc2[nH]ccc12 [CP690550] (first compound 0.0001 µM, partner dose 1 µM), the cell count was found to be 114%.

In turn, `N#CC[C@H](C1CCCC1)n1cc(-c2ncnc3[nH]ccc23)cn1` [ruxolitinib] + O=C1NC(=O)/C(=C/c2ccc(-c3ccc(F)cc3O)o2)S1 [AS252424] (first compound 1 µM, partner dose 1 µM) registered a cell count of 113%. As for `CC[C@]1(O)C[C@H]2CN(CCc3c([nH]c4ccccc34)[C@@](C(=O)OC)(c3cc4c(cc3OC)N(C=O)[C@H]3[C@@](O)(C(=O)OC)[C@H](OC(C)=O)[C@]5(CC)C=CCN6CC[C@]43[C@@H]65)C2)C1` [vincristine] + COc1ccc(-c2ccc3c(N4CCOCC4)nc(N4C[C@@H](C)O[C@@H](C)C4)nc3n2)cc1CO [KU0063794] (first compound 0.0001 µM, partner dose 0.02 µM), the figure is 88.9%; as for `N#CC[C@H](C1CCCC1)n1cc(-c2ncnc3[nH]ccc23)cn1` [ruxolitinib] + CCN(CC)CCCCNc1ncc2cc(-c3cc(OC)cc(OC)c3)c(NC(=O)NC(C)(C)C)nc2n1 [PD173074] (first compound 1 µM, partner dose 0.1 µM), 141%.
